Source: PubChem BioAssay AID1030 (National Center for Advancing Translational Sciences (NCATS), 2008)
The whole screen tested about 220,000 compounds, of which about 16,000 (7.3%) were called active. Inconclusive results, whose numbers are uncertain, are shown with a selection of clear calls. Calls come from the whole dose curve; as a rule, active = well fitted inhibition curve with a large enough effect (not every such curve was filed as active); inconclusive = small, poorly fitted or top-dose-only effect, or another doubt; inactive = no such curve, though single readings can be large or run the other way. A potency beside an inconclusive call is a rough fit, not a confirmed value.

target: Aldehyde dehydrogenase 1A1 (Homo sapiens) (UniProt P00352); test: qHTS Assay for Inhibitors of Aldehyde Dehydrogenase 1 (ALDH1A1); settings: Purified ALDH1A1, NADH fluorescence, propionaldehyde substrate; series mostly up to 75.3 µM; activity, negative = inhibition: at the top concentration;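 for activity, negative = inhibition: plate controls were no enzyme wells and a reference inhibitor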
UniProt P00352, sequence (P00352 whole entry, looked up): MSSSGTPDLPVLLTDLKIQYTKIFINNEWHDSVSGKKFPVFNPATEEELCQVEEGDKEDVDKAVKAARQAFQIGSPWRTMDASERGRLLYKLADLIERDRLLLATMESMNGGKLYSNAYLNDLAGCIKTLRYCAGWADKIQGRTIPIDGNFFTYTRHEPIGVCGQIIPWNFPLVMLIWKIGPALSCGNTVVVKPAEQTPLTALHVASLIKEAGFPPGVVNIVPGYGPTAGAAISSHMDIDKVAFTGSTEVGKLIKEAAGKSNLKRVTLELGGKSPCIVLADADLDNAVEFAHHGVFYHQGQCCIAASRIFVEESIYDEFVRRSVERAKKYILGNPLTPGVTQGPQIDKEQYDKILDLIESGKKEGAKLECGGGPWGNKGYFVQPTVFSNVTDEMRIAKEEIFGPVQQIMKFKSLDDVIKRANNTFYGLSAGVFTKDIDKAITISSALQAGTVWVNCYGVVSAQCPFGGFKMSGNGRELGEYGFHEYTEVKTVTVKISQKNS
Potency is the fitted concentration of half-maximal effect; tags give direction and shape of the fitted curve.

activity, negative = inhibition, inactive:
COc1ccc(Br)cc1-c1nc(C)c(C(C)=O)n1O -7.26%, Cc1ccc(NC(=O)Nc2ccc([N+](=O)[O-])cc2)nc1 6.1%, O=c1c2cc3c(=O)n(-c4ccccc4O)c(=O)c3cc2c(=O)n1-c1ccccc1O 1.41%, C/C=C(\C)C(=O)NCCN1C2=NC[C@H](Cc3ccc(O)cc3)N2C[C@@H]1Cc1ccc(OC)cc1 5.48%, COc1cccc(N=Nc2c(N)[nH]n3c(=O)c4c(nc23)CCCC4)c1 0.75%, O=C(CSc1oc(-c2ccco2)nc1S(=O)(=O)c1ccccc1)NCC1CCCO1 (stereo unspecified) -14.6%, Cc1ccc(N=Nc2c(N)[nH]n3c(=O)cc(-c4ccccc4)nc23)cc1 11.5%, COc1cccc(-c2noc(Cn3nc(C)c([N+](=O)[O-])c3C)n2)c1 -8.3%, Oc1c(C(Nc2ccccn2)c2ccccn2)ccc2cccnc12 (stereo unspecified) 2.68%, Cc1cc(=O)[nH]c(=O)n1Cc1ccccc1 2.67%, COC(=O)N1CCC2(CC1)CN(C(=O)Nc1ccc(OC)cc1)C2 3.35%, C/C(=C1/C(=O)N(c2ccc([N+](=O)[O-])cc2)N=C1c1ccccc1)N(C)C -7.89%, O=C(O)c1cccc(NC(=O)c2cccc(S(=O)(=O)N3CCc4ccccc4C3)c2)c1 1.39%

Potency, inconclusive:
O=C(c1ccc2c3c(cccc13)CC2)C1CCCN(C(=O)c2ccc(=O)[nH]c2)C1 (stereo unspecified) 35.5 µM [inhibitor, single point], O=C(Nc1ccc(N2CCN(C(=O)c3ccco3)CC2)cc1)c1ccccc1F 28.2 µM [inhibitor, partial curve], C/C(=N\NC(=O)CNc1cccc(C(F)(F)F)c1)c1ccc(Br)cc1 39.8 µM [inhibitor, single point], O=C(c1ccc2c3c(cccc13)CC2)C1CCCN(Cc2cccnc2)C1 (stereo unspecified) 31.6 µM [inhibitor, partial curve], COc1cc(/C=N/NC(=O)c2ccc(CSc3nc4ccccc4[nH]3)cc2)cc(OC)c1OC 37.7 µM [inhibitor, single point], Cc1ccccc1Nc1nc(N)nc(COC(=O)C(NC(=O)c2ccco2)C(C)C)n1 (stereo unspecified) 35.5 µM [inhibitor, single point], Cc1cccc(Cc2c(C)nc3c(C(=O)N4CCN(Cc5ccc6c(c5)OCO6)CC4)cnn3c2C)c1 25.1 µM [inhibitor, partial curve], O=c1cnc2cnc(Oc3cccc(Cl)c3)nc2n1C[C@H]1CCCO1 22.4 µM [inhibitor, single point], CC(C)CC(=O)NC(=S)Nc1cccc(NC(=O)c2ccccc2Cl)c1 35.5 µM [inhibitor, single point], Cn1cnnc1SCC(=O)N1c2ccccc2-c2c(ssc2=S)C1(C)C 39.8 µM [inhibitor, single point], COc1ccc2c(Cl)c(C(=O)NCc3ccco3)sc2c1 14.1 µM [inhibitor, partial curve], O=C(CSCc1ccc([N+](=O)[O-])cc1)NCCSCc1ccccc1 39.8 µM [inhibitor, single point], CN(C)S(=O)(=O)c1ccc(S(=O)(=O)N(CC(=O)Nc2ccccc2)CC2CCCO2)cc1 (stereo unspecified) 28.2 µM [inhibitor, partial curve], O=C(CN1C(=O)c2ccccc2C1=O)Nc1sc2c(c1C(=O)NCc1ccco1)CCCC2 2 µM [inhibitor, full curve], Cn1c2ccc(F)cc2c2ncn(Cc3ccco3)c(=O)c21 28.2 µM [inhibitor, partial curve], CCOC(=O)N1CCC(NC(=O)c2ccc3c(c2)ncn3C2CCCC2)CC1 31.6 µM [inhibitor, partial curve, poor fit], CCOC(=O)C1=C(C)NC(C)=C(C(=O)OCC)C1c1ccc(OC)cc1 39.8 µM [inhibitor, single point], O=C(Nc1cccc(-c2nc3ccccc3[nH]2)c1)c1cccc(NC(=O)c2ccco2)c1 39.8 µM [inhibitor, single point], Cc1ccccc1Cn1cc(NC(=O)c2cc(-c3cccs3)on2)cn1 2.82 µM [inhibitor, full curve, poor fit], Cc1cc(N2CCN(c3ccccc3)CC2)n2c(n1)nc1ccccc12 20 µM [inhibitor, partial curve], N#C/C(=N\Nc1ccccc1F)C(=N)N1CCCCC1 39.8 µM [inhibitor, single point], COC(=O)c1ccc(C(=O)OC)c(NC(=S)N2CCC(C)CC2)c1 28.2 µM [inhibitor, partial curve], Cc1cc(C)c2cc(C#N)c(NCCOC(=O)c3ccccc3C)nc2c1 23.8 µM [inhibitor, partial curve], COc1ccc(N(C(=O)c2ccc(Br)o2)C2C=CS(=O)(=O)C2)cc1 (stereo unspecified) 39.8 µM [inhibitor, single point], CCCNC(=S)N(Cc1ccccc1)Cc1nc2ccccc2c(=O)[nH]1 28.2 µM [inhibitor, single point]

Potency, active:
C=CCNC(=O)c1ccc2c(=O)n(CCCN3CCCC3=O)c(=S)[nH]c2c1 3.16 µM, COc1ccc(/C=C(\C#N)C(=O)ONC2=NCCCCC2)cc1 35.5 µM, COc1ccc(C(C)=O)cc1COC(=O)c1cccnc1SC 10 µM, Cc1cccc(NC(=S)Nn2cnnc2)c1C 7.94 µM, Cc1ccc(NC(=O)CSC(N)=O)cc1Cl 3.55 µM, CCOC(=O)c1sc(NC(=O)COC(=O)CNC(=O)c2ccco2)c(C(=O)OCC)c1C 28.2 µM, CCOCC(=O)Nc1cccc(Br)c1 20 µM, Cc1cc(C)nc(NC(=O)CSc2nnnn2-c2ccccc2)n1 7.08 µM
